Assay results published in PubChem BioAssay AID504832 (National Center for Advancing Translational Sciences (NCATS), 2011).
In all, about 310,000 compounds went through this assay and about 18,000 (5.8%) were called active. The shares of active, inactive and inconclusive entries below differ from those in the screen. The call rests on the fitted dose curve; in most records, active means well fitted inhibition curve with a large enough effect; inconclusive means small, poorly fitted or top-dose-only effect, or another doubt; inactive means no such curve, though single readings can be large or run the other way. Potencies of inconclusive entries are left out as doubtful fits.
Potency means the concentration at half of the fitted maximal effect; tags describe the fitted curve by direction and shape.

Test: Primary qHTS for delayed death inhibitors of the malarial parasite plastid, 48 hour incubation
Details: P. falciparum luciferase growth in erythrocytes; series mostly up to 28.7 µM
Outline: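 Growth was read as firefly luciferase luminescence after a 48 h, 37 C, 5% CO2 exposure of compounds to reporter-bearing P. falciparum cultures (0.1% parasitemia, 2% hematocrit final) in Albumax-supplemented RPMI 1640.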
In the case of `COCCN(C(=O)Cc1cccs1)c1nnc(-c2ccncc2)s1`, the Potency is reported as “inactive”.
With `CC(C)CC(=O)/C(=C\c1ccc(Cl)cc1Cl)n1cncn1` the Potency was inconclusive [inhibitor, single point].
For `CCCCN(CCCC)CCNC(=O)c1cn(CC)c2ccc(S(=O)(=O)N(C)C3CCCCC3)cc2c1=O`, the Potency was inconclusive [inhibitor, partial curve, poor fit].
For `c1ccc(-c2ccccc2OCCOCCN2CCc3ccccc3C2)cc1`, the Potency was inconclusive [inhibitor, single point].
In the case of `CC1=CC(C)(C)N(C)C(=O)N1c1ccc(Cl)cc1`, the Potency is reported as inconclusive [inhibitor, single point].
In the case of `Cc1cn2c(nc1=O)OC1C(O)C(COC(=O)c3ccccc3)OC12` (stereo not given), the Potency is reported as “inactive”.
For `O=[N+]([O-])c1ccc(N(CC(O)CN2CCCCC2)S(=O)(=O)c2ccccc2)cc1` (stereo not given), the Potency was “inactive”.
In the case of `CCC(C)(C)NC(=O)C(c1cccs1)N(C(=O)c1ccn[nH]1)c1cccc(OC)c1` (stereo not given), the Potency is reported as inconclusive [inhibitor, single point].
With `COc1ccc(Cl)cc1C(=O)Nc1cccnc1Cl` the Potency was “inactive”.
For `CC(NCc1ccc(OCC(N)=O)cc1)C12CC3CC(CC(C3)C1)C2` (stereo not given), the Potency was inconclusive [inhibitor, partial curve, poor fit].
In the case of `COCCNC(=O)Cn1c(=O)n(CCCCCC(=O)NCc2ccc3c(c2)OCO3)c(=O)c2sccc21`, the Potency is reported as inconclusive [inhibitor, partial curve].
With `CCOc1nc(NCCc2ccc(OC)c(OC)c2)nc(NC(C)(C)CO)n1` the Potency was inconclusive [inhibitor, partial curve].
For `CN(C)c1ccc(/C=N/N(CCC#N)C2=NS(=O)(=O)c3ccccc32)cc1`, the Potency was inconclusive [inhibitor, partial curve, poor fit].
For `COc1cc2c(cc1OC)C(C)N(C(=O)C1=NN(c3cccc(C)c3)C(=O)CC1)CC2` (stereo not given), the Potency was inconclusive [inhibitor, partial curve].
For `CC(C)(C)OC(=O)NC(CC(=O)OCc1ccccc1)C(=O)O` (stereo not given), the Potency was “inactive”.
For `C=C(C)Cn1c(=O)c2c(nc3n2CCN3c2cccc(Cl)c2C)n(C)c1=O`, the Potency was active: 9.28 µM.
In the case of `CCN(Cc1ccncc1)C(=O)c1cc(COc2ccc(F)cc2Cl)on1`, the Potency is reported as inconclusive [inhibitor, partial curve, poor fit].
In the case of `CC(C)COc1ccc(C(=O)Nc2ccc(N3CCOCC3)cc2N2CCOCC2)cc1`, the Potency is reported as inconclusive [inhibitor, partial curve].
With `COc1ccccc1Oc1c(C)oc2cc(OC(=O)c3ccco3)ccc2c1=O` the Potency was “inactive”.
In the case of `COc1ccc(NS(=O)(=O)c2cccc(C(=O)NCC(c3ccco3)N3CCCC3)c2)cc1` (stereo not given), the Potency is reported as inconclusive [inhibitor, partial curve, poor fit].
For `Cc1ccc(C(=O)NC(=S)N2CCCC2)cc1`, the Potency was inconclusive [inhibitor, partial curve, poor fit].
In the case of `COc1cc2[nH]c(-c3ccc(C)cc3)cc(=O)c2cc1OC`, the Potency is reported as “inactive”.
With `COc1ccc(-c2nn(CCC#N)cc2C(=O)Nc2cccc(C(=O)O)c2)cc1OC` the Potency was “inactive”.
In the case of `COc1ccc(NC(=O)CN2C(=O)NC(C)(C3CC3)C2=O)cc1S(=O)(=O)N1CCCCC1` (stereo not given), the Potency is reported as inconclusive [inhibitor, single point].
With `S=C(NC1CCCCC1)N1CCCCC1` the Potency was “inactive”.
For `COc1nc(N(c2ccccc2)c2ccccc2)nc(-n2ccnc2)n1`, the Potency was active: 11.7 µM.
In the case of `CCCCCN(C(=O)CCC(=O)OCC(=O)N(CC)c1ccccc1)c1c(N)n(CCCC)c(=O)[nH]c1=O`, the Potency is reported as “inactive”.
With `CCCCn1c(SCC(=O)NC2CCCC2)nnc1-c1ccco1` the Potency was “inactive”.
With `COc1ccccc1CN1C(=O)CCC1(C)C(=O)NC1CCCCCC1` (stereo not given) the Potency was inconclusive [inhibitor, single point].
With `CCOc1ccc(/C=N/Nc2nc(=O)[nH]nc2C)cc1OC` the Potency was inconclusive [inhibitor, full curve].
In the case of `CNC(=S)N(Cc1ccc(OC)cc1)C1CC(=O)N(c2ccc(C(=O)OC)cc2)C1=O` (stereo not given), the Potency is reported as inconclusive [inhibitor, single point].
With `CCOC(=O)N1CCN(c2c(F)cc3[nH]c(=S)[nH]c3c2Br)CC1` the Potency was inconclusive [inhibitor, partial curve, poor fit].
In the case of `Cc1ccc(C)n1-c1c(C(=O)NN)cnn1-c1ccccc1`, the Potency is reported as active: 10.4 µM.
In the case of `O=C(N/N=C/c1ccccc1Br)C1CC1`, the Potency is reported as “inactive”.
With `CCCCNC(=O)CSc1nc(O)cc(=O)n1C1CCCC1` the Potency was inconclusive [inhibitor, single point].
For `COc1ccc(/C=C2\SC(=S)N(N3CCOCC3)C2=O)c(OC)c1`, the Potency was “inactive”.
In the case of `COC(=O)C1=C(c2ccc(OC(F)(F)F)cc2)C[C@@H]2CC[C@H]1N2C(=O)N1CCC(C)CC1`, the Potency is reported as inconclusive [inhibitor, partial curve].
In the case of `O=[N+]([O-])c1ccc(Cl)c(C[n+]2cccc3ccccc32)c1`, the Potency is reported as inconclusive [inhibitor, single point].
For `CCCCCC(=O)Nc1cccc(C2=NOC3(C2)C[C@H](C(N)=O)N(C(=O)c2ccccc2C(=O)c2ccccc2)C3)c1` (stereo not given in full), the Potency was active: 9.28 µM.
In the case of `Cc1ccc2nc(Nc3ccccc3O)nc(-c3ccccc3)c2c1`, the Potency is reported as active: 13.1 µM.
With `O=C(O)CSc1ccc(NC(=O)Nc2ccccc2F)cc1` the Potency was “inactive”.
For `Cc1cccc(C)c1NC(=O)c1sccc1SCc1cccc(C(F)(F)F)c1`, the Potency was inconclusive [inhibitor, partial curve].
In the case of `COc1ccc(NC(=O)NCCN2CCN(c3ccc(C)cc3)CC2)c(Cl)c1`, the Potency is reported as inconclusive [inhibitor, single point].
For `S=c1[nH]nc(C2CCCCC2)n1/N=C/c1c(Cl)cccc1Cl`, the Potency was “inactive”.
In the case of `O=S(Cc1ccc(Br)cc1)Cc1nnc(SCc2ccc(Br)cc2)n1-c1ccccc1` (stereo not given), the Potency is reported as inconclusive [inhibitor, single point].
For `CCCC[n+]1ccn(C2=C([O-])c3ccccc3C(=O)/C2=N\S(=O)(=O)c2ccc(Cl)cc2)c1`, the Potency was inconclusive [inhibitor, full curve].
In the case of `Cc1ccc(S(=O)(=O)N2CCN(C(=O)C(C)Cn3nc(C)c(C)c3C)CC2)cc1` (stereo not given), the Potency is reported as “inactive”.
For `COc1cccc(Nc2ncccc2C(=O)Nc2ccccc2)c1`, the Potency was inconclusive [inhibitor, single point].
With `O=[N+]([O-])c1ccccc1Nc1ccccc1` the Potency was “inactive”.
In the case of `CCCCN(C)CCCNC(=O)c1cn(CC)c2ccc(S(=O)(=O)N3CCOCC3)cc2c1=O`, the Potency is reported as inconclusive [inhibitor, partial curve, poor fit].
For `Cc1ccc(C(=O)N/C(=C/c2ccco2)C(=O)NCCc2c[nH]c3ccccc23)cc1C`, the Potency was inconclusive [inhibitor, partial curve, poor fit].
In the case of `Cc1nn(-c2ccccn2)c2c1-c1nc(N3CCOCC3)ncc1CC2`, the Potency is reported as inconclusive [inhibitor, full curve, poor fit].
For `COc1ccc(CCC(=O)Nc2ccc(C)c(S(=O)(=O)N(C)C)c2)cc1OC`, the Potency was “inactive”.
With `COC(=O)c1ccc(C(NC(=O)OCc2ccccc2)/C(F)=C/[C@@H](C)C(=O)NCc2ccc(OC)c(OC)c2)cc1` (stereo not given in full) the Potency was inconclusive [inhibitor, partial curve].
For `N#Cc1ccccc1Cn1cc(/C=C/[N+](=O)[O-])c2ccccc21`, the Potency was active: 9.28 µM.
With `COc1ccc(/C=N/NC(=O)c2ccc(Br)cc2)c(OC)c1` the Potency was inconclusive [inhibitor, full curve, poor fit].
With `CN(NS(=O)(=O)c1ccc(Cl)cc1)c1cnn(C)c(=O)c1Cl` the Potency was inconclusive [inhibitor, full curve, poor fit].
With `CCOC(=O)C(Cc1ccccc1)C(=O)Nc1ccccc1C` (stereo not given) the Potency was inconclusive [inhibitor, single point].
In the case of `CCOc1ccccc1NC(=O)CNC(=O)c1nn(-c2ccc(OC)c(OC)c2)c(=O)c2ccccc12`, the Potency is reported as active: 13.1 µM.
In the case of `COc1ccc(-c2nc(C#N)c(NCc3ccccc3Cl)o2)cc1OC`, the Potency is reported as inconclusive [inhibitor, single point].
For `Cc1cccc(N2CCN(c3nc4ccc(Cl)cc4n4cnnc34)CC2)c1C`, the Potency was inconclusive [inhibitor, single point].
With `CCOc1ccc(S(=O)(=O)NCc2ccc3c(c2)OCO3)cc1NC(C)=O` the Potency was “inactive”.
In the case of `COc1cc([N+](=O)[O-])ccc1Nc1nc(C)cc(C)n1`, the Potency is reported as “inactive”.
For `Oc1ccc(-c2cn3ccccc3n2)cc1`, the Potency was “inactive”.
In the case of `CN(C)CCCN(C(=O)c1cc(-c2cccs2)nc2ccccc12)c1nc2c(F)cccc2s1`, the Potency is reported as inconclusive [inhibitor, single point].
With `O=C(Nc1nc2ccccc2n1CCN1CCOCC1)c1cn(-c2ccccc2)nc1-c1ccccc1` the Potency was active: 10.4 µM.
In the case of `Cc1nc(NCCc2ccccc2)c(C#N)c(C)c1[N+](=O)[O-]`, the Potency is reported as inconclusive [inhibitor, partial curve, poor fit].
For `Cc1cc(C)cc(N(CC(=O)NCC2CCCO2)C(=O)CN2C(=O)COc3ccccc32)c1` (stereo not given), the Potency was inconclusive [inhibitor, single point].
With `CCOC(=O)C1=C(O)/C(=C/c2ccccn2)SC1=Nc1ccc(Cl)cc1` the Potency was active: 9.28 µM.
In the case of `COc1cc(-c2nc3c(c(C)nn3-c3ccccc3)c3cc(OC)c(OC)cc23)ccc1O`, the Potency is reported as active: 2.94 µM.
